Data from PubChem BioAssay AID504339 (National Center for Advancing Translational Sciences (NCATS), 2011).
The campaign covered roughly 390,000 compounds. About 17,000 (4.4%) were called active. This list was built around the results that the source calls inconclusive (neither active nor inactive); the mix of calls is not that of the screen. Calls follow the shape of the dose curve; as a rule, active = well fitted inhibition curve with a large enough effect; inconclusive = small, poorly fitted or top-dose-only effect; inactive = no such curve, though single readings can be large or run the other way. Where the call is inconclusive, the potency comes from a doubtful curve fit.

Molecular target: Lysine-specific demethylase 4A (Homo sapiens) (UniProt O75164)
Experiment: qHTS Assay for Inhibitors of JMJD2A-Tudor Domain; also: nearly all actives have a fitted effect of over 50% in size
Conditions: AlphaScreen JMJD2A-Tudor / H3K4me3 peptide binding; activity change, negative = inhibition: at 114 µM (top of the series)
% is scaled to controls: 0 for no effect and ±100 for the full control effect; potency is read from the fitted curve at half-maximal effect; tags tell the direction and shape of the fitted curve.

Chain of UniProt O75164 (O75164 whole entry, looked up, the tested form may be a part): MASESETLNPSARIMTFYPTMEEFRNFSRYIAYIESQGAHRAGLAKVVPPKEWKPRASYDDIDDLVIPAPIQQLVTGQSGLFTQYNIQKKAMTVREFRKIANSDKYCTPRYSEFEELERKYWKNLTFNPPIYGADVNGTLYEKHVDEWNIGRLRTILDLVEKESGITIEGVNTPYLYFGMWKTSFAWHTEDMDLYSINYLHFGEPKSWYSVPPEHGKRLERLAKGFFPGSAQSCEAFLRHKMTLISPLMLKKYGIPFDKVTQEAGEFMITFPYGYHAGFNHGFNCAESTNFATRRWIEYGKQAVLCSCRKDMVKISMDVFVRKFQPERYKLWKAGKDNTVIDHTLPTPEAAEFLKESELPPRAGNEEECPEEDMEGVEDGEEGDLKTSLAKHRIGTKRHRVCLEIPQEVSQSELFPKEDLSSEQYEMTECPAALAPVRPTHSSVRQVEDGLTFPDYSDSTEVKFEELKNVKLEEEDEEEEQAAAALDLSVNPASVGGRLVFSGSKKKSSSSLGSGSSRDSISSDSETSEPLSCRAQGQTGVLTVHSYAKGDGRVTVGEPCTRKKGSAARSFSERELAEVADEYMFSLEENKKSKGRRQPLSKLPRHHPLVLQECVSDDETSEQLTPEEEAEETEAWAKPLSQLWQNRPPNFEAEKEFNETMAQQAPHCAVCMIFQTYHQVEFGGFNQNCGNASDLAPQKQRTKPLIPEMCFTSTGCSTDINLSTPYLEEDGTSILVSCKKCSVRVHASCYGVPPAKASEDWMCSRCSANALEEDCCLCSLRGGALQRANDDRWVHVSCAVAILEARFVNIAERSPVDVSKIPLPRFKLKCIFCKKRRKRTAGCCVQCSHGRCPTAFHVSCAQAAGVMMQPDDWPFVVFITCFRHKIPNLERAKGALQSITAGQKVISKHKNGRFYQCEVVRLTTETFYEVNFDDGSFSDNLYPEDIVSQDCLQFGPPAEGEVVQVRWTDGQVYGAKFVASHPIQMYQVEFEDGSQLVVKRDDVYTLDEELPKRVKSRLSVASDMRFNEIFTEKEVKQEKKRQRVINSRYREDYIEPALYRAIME

| Compound | Potency | activity change, negative = inhibition |
| --- | --- | --- |
| O=[N+]([O-])c1ccccc1/C=N\N1CCN(c2ccccc2)CC1 | active: 39.8 µM |  |
| Nc1nnc(SCC(=O)Nc2sc3c(c2C(=O)c2ccccc2)CCCC3)s1 | inconclusive: 31.6 µM [inhibitor, full curve] |  |
| CSCCC1NC(=O)C(C(C)=NNC(N)=O)=C1O (centres undefined) | inconclusive: 44.7 µM [inhibitor, partial curve] |  |
| CCC1Nc2ncnc(N3CCN(c4ccccc4)CC3)c2N(Cc2ccc(C)cc2)C1=O (centres undefined) | active: 56.2 µM |  |
| C/C(=N\Nc1ccc(S(N)(=O)=O)cc1[N+](=O)[O-])c1cccs1 | inconclusive: 89.1 µM [inhibitor, partial curve] |  |
| CNC(=S)NNc1nc(C)cc(C)n1 | inconclusive: 89.1 µM [inhibitor, partial curve] |  |
| COc1ccc(C(C#N)c2ccc(Cl)nn2)cc1 (centres undefined) | inconclusive: 50.1 µM [inhibitor, partial curve] |  |
| Cc1ccc(C(=O)Nc2cccnc2)cc1S(=O)(=O)N1CCCCC1 |  | inactive: -25.6% [at 11.4 µM] |
| Brc1ccc(NC2=Nc3ccccc3CC2)cc1 | inconclusive: 39.8 µM [inhibitor, single point] |  |
| COc1cc(N2C(=O)c3ccccc3C2=O)c(Cl)cc1C(=O)OCC(=O)N(C)C | inconclusive: 79.4 µM [inhibitor, partial curve] |  |
| COc1ccccc1-c1nnc2n1N=C(C)CS2 | active: 56.2 µM |  |
| C=CCNC(=O)NC(=S)c1ccccc1 |  | inactive: -12.8% |
| CCOC(=O)C1=C(C)NC2=C(C(=O)c3ccccc32)C1c1ccc(O)cc1 (centres undefined) | inconclusive: 10 µM [inhibitor, full curve] |  |
| CCN(C(=O)Cn1c(C(=O)OC)cc2sc(Cl)cc21)c1cccc(C)c1 |  | inactive: -8% |
| Cc1cc(C)cc(-n2ccnc2SCC(=O)Nc2cccc3ccccc23)c1 | active: 22.4 µM |  |
| CCC(C(=O)OCC(=O)NC(=O)c1ccccc1)c1ccccc1 (centres undefined) |  | inactive: -7.53% |
| CCOc1ccccc1NC(=O)COC(=O)c1cc(C)oc1C |  | inactive: -8.22% |
| Cc1ccc(CN2C(=O)C(O)(c3c(C)[nH]c4ccccc34)c3ccccc32)cc1 (centres undefined) | inconclusive: 35.5 µM [inhibitor, full curve] |  |
| COc1cc(C2C(C(=O)c3ccc(C)o3)=C(O)C(=O)N2CCc2ccccc2)ccc1O (centres undefined) | active: 17.8 µM |  |
| OCCN(Cc1ccccc1)C(=S)Nc1ccc(Cl)cc1Cl | inconclusive: 56.2 µM [inhibitor, partial curve] |  |
| COCCNC(=O)/C(C#N)=C/c1c(N2CCN(c3ccc(OC)cc3)CC2)nc2c(C)cccn2c1=O | active: 50.1 µM |  |
| O=C(C1=C[C@H](c2csc3ccccc23)C[C@H](OCc2ccc(CO)cc2)O1)N1CCN(Cc2ccccc2)CC1 | inconclusive: 8.91 µM [inhibitor, full curve] |  |
| CCn1c2ccccc2c2nnc(SCCN3CCOCC3)nc21 |  | inactive: -9.18% |
| Cc1nc2ccccc2n1CCC(=O)O |  | inactive: 12.6% |
| COc1ccc2[nH]c3c(c2c1)CCNC3c1ccc([N+](=O)[O-])o1 (centres undefined) | active: 50.1 µM |  |

| Compound | Potency | activity change, negative = inhibition |
| --- | --- | --- |
| O=[N+]([O-])c1ccc(O)c(C2=NNC(c3ccccc3F)C2)c1 (centres undefined) | inconclusive: 79.4 µM [inhibitor, partial curve] |  |
| CCOc1ccc(CCNC(=O)c2cc3c(-c4ccccc4F)nn(C)c3s2)cc1 |  | inactive: -9.6% |
| CC(C)c1ccc(S(=O)(=O)/N=C2\C=C(NS(=O)(=O)c3ccccc3)C(=O)c3ccccc32)cc1 | active: 28.2 µM |  |
| COc1ccc(N=C2S/C(=C\c3ccc(Cl)c([N+](=O)[O-])c3)C(=O)N2CCN(C)C)cc1 | active: 35.5 µM |  |
| O=C(c1ccccc1Br)N1CCCC(c2nc(-c3cccs3)no2)C1 (centres undefined) |  | inactive: -19.7% |
| COc1ccc(Cl)cc1-n1cc(-c2ccccc2)nc1SCC(=O)Nc1ccc(C)cc1 | inconclusive: 39.8 µM [inhibitor, partial curve] |  |
| COC(=O)C1=C(C)N(C)C(=O)/C1=C\c1cccs1 | inconclusive: 39.8 µM [inhibitor, partial curve] |  |
| Cc1cccc(NC(=S)N2CCCC2)c1 |  | inactive: -7.59% |
| COc1cc(N)c2ncsc2c1 | inconclusive: 50.1 µM [inhibitor, partial curve] |  |
| CC1CN(CC(=O)Nc2nc3ccccc3s2)CC(C)O1 (centres undefined) | inconclusive: 17.8 µM [inhibitor, partial curve] |  |
| O=C1NC(=Nc2ccccc2Cl)S/C1=C\c1cccc([N+](=O)[O-])c1 | inconclusive: 70.8 µM [inhibitor, partial curve, poor fit] |  |
| CN1CCN(CCC=C2c3ccccc3Sc3ccc(S(=O)(=O)N(C)C)cc32)CC1 | inconclusive: 39.8 µM [inhibitor, partial curve] |  |
| CSc1ccc(CN2CCN(C(=O)CC(C)C)CC2)cc1 | active: 20 µM |  |
| COc1ccc(F)cc1S(=O)(=O)n1cc(C)nc1-c1ccccc1 | active: 22.4 µM |  |
| COc1ccc(C(=O)N/N=C(\C)CC(=O)Nc2ccc3c(c2)OCO3)cc1 | inconclusive: 89.1 µM [inhibitor, single point] |  |
| CN(C)c1ccc(CN(C(=O)COc2ccc(Br)cc2)C2CCS(=O)(=O)C2)cc1 (centres undefined) | active: 39.8 µM |  |
| CC1(c2ccc(Cl)cc2)NC(=O)N(CC(=O)Nc2cccnc2Cl)C1=O (centres undefined) |  | inactive: 0.69% |
| CCS(=O)(=O)N1CCc2cc(C(=O)NCc3ccccc3OC)ccc21 | inconclusive: 89.1 µM [inhibitor, partial curve] |  |
| N#Cc1c(-c2ccc(Cl)cc2)cc(-c2cccs2)nc1SCC(=O)O | active: 28.2 µM |  |
| CC1CCC(NS(=O)(=O)c2cccc3nsnc23)CC1 (centres undefined) | inconclusive: 15.8 µM [inhibitor, single point] |  |
| CC(=O)Oc1cc(C(=O)OCC(=O)N2CCc3ccccc3C2)cc(OC(C)=O)c1OC(C)=O | active: 1.58 µM |  |
| COc1ccc(CN2CCN(Cc3ccc(C(F)(F)F)cc3)CC2)c(OC)c1 | active: 5.62 µM |  |
| N#Cc1c(N2CCCC2)nc(N)c2c(N)nc(N3CCCC3)cc12 | inconclusive: 39.8 µM [inhibitor, single point] |  |
| COc1ccc(OCCCCN(C)Cc2ccccc2)cc1 | active: 20 µM |  |
| CC1(C)Cc2c(C#N)c(N3CCN(C(=O)c4ccccc4)CC3)nc(Cc3ccccc3)c2CO1 |  | inactive: -13.9% |

| Compound | Potency | activity change, negative = inhibition |
| --- | --- | --- |
| Cc1[nH]c2ccccc2c1/C=N/NC(=O)c1cccc(S(=O)(=O)Nc2cccc(C(F)(F)F)c2)c1 | inconclusive: 44.7 µM [inhibitor, partial curve] |  |
| CCC1C(=O)N(c2nc(C)cc(C)n2)N=C1C (centres undefined) | active: 11.2 µM |  |
| CCOC(=O)c1cc(-c2ccc(OC)cc2)n(CCC(=O)NCCc2ccccc2)c1C | inconclusive: 35.5 µM [inhibitor, partial curve] |  |
| Cc1ccccc1N(C)S(=O)(=O)c1nnc(NC(=O)c2ccco2)s1 | inconclusive: 10 µM [inhibitor, full curve] |  |
| O=C(Nc1ccc(N2CCOCC2)cc1)c1ccc(Cl)nc1 | inconclusive: 89.1 µM [inhibitor, single point] |  |
| CCCCc1ccc(-n2c(Cc3cccs3)n[nH]c2=S)cc1 | inconclusive: 56.2 µM [inhibitor, partial curve] |  |
| COc1ccc(C(=O)N2CCN(C3CCCCC3)CC2)cc1OC | active: 28.2 µM |  |
| CC(C)Oc1ccc(C(=O)/C=C2/C(=O)Nc3ccccc32)cc1 | inconclusive: 11.2 µM [inhibitor, full curve] |  |
| CCCC(=O)Nc1ccc2nn(-c3ccc(OC)cc3)nc2c1 | inconclusive: 15.8 µM [inhibitor, full curve] |  |
| COc1cc2c(cc1OC)/C(=C/C(=O)c1ccc(C)cc1)NCC2 | inconclusive: 3.16 µM [inhibitor, single point] |  |
| COc1ccc(NC2c3ncccc3C(=O)N2Cc2cccs2)cc1 (centres undefined) | inconclusive: 79.4 µM [inhibitor, partial curve] |  |
| COc1cc(Cl)c(C)cc1NC(=O)COC(=O)C1=COCCO1 |  | inactive: -12.3% |
| COc1cccc(CN2CCNC(=O)C2CC(=O)N2CCCCO2)c1OC (centres undefined) |  | inactive: 0.98% |
| Cc1ccc(NC(Cc2cc(C)no2)c2ccccc2)cc1 (centres undefined) | inconclusive: 50.1 µM [inhibitor, partial curve] |  |
| COc1cc([N+](=O)[O-])ccc1NC(=S)NNC(=O)CCC(=O)Nc1ccccc1Cl | inconclusive: 56.2 µM [inhibitor, partial curve, poor fit] |  |
| NC1=NC(c2cn(-c3ccccc3)nc2-c2cccs2)n2c(nc3ccccc32)N1 (centres undefined) | inconclusive: 44.7 µM [inhibitor, partial curve] |  |
| CC(=O)C1C(=O)c2c(cccc2[N+](=O)[O-])C1=Nc1cccc(Cl)c1 (centres undefined) | inconclusive: 39.8 µM [inhibitor, partial curve] |  |
| Cc1cc(-c2c(C)[nH]n(-c3ccccc3)c2=O)n[nH]1 | inconclusive: 28.2 µM [inhibitor, single point] |  |
| O=C(COc1ccccc1Cl)Nc1ccccc1C(=O)N1CCCCC1 |  | inactive: -9.66% |
| CC1(C)Cc2ccccc2C(NNC(=O)c2cccnc2)=N1 | inconclusive: 5.01 µM [inhibitor, full curve, poor fit] |  |
| COc1ccc(S(=O)(=O)NCc2ccccn2)cc1NC(=O)c1ccc(C)cc1 | active: 6.31 µM |  |
| O=C(CSc1ncc(-c2ccc(F)cc2)[nH]1)NCc1ccco1 | inconclusive: 56.2 µM [inhibitor, partial curve] |  |
| COc1ccccc1-n1c(=S)sc2c(=O)n(Cc3ccco3)c(SC)nc21 | inconclusive: 17.8 µM [inhibitor, full curve] |  |
| CCn1c(=S)[nH]c2ccccc21 | active: 79.4 µM |  |
